The other results are listed elsewhere or left out.
Legend:
Assay in all cases: glycan array binding signal (z-score within array); higher = stronger binding
Details in all cases: glycan notation: IUPAC condensed, linker removed
[1] = target: GlcNAc(b1-6)GalNAc
Procedure, shortened: (§1)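 Glycan array data came from 3228 arrays in the Consortium for Functional Glycomics database, and only arrays with an available protein sequence were kept. Glycan names were put into IUPAC-condensed notation, and columns mapping to the same glycan were averaged. The binding signal is a within-array Z-score, averaged across arrays of one protein sequence run at different concentrations or buffers and across linkers. A negative Z-score can be read as non-binding.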

[2] = target: GlcNAc3Prop(b1-4)GlcNAc
Procedure, shortened: as §1

[3] = target: Kdn(a2-3)Gal(b1-3)GlcNAc
Procedure, shortened: as §1

[4] = target: Kdn(a2-3)Gal(b1-4)GlcNAc
Procedure, shortened: as §1

[5] = target: Man(a1-2)Man(a1-2)Man(a1-3)Man
Procedure, shortened: as §1

[6] = target: Man(a1-2)Man(a1-2)Man(a1-6)[Man(a1-3)]Man
Procedure, shortened: as §1

[7] = target: Man(a1-2)Man(a1-3)Man
Procedure, shortened: as §1

[8] = target: Man(a1-2)Man(a1-3)[Man(a1-2)Man(a1-6)]Man
Procedure, shortened: as §1

[9] = target: Man(a1-2)Man(a1-3)[Man(a1-2)Man(a1-6)]Man(a1-6)[Man(a1-2)Man(a1-2)Man(a1-3)]Man
Procedure, shortened: as §1

[10] = target: Man(a1-2)Man(a1-3)[Man(a1-2)Man(a1-6)]Man(a1-6)[Man(a1-2)Man(a1-2)Man(a1-3)]Man(b1-4)GlcNAc(b1-4)GlcNAc
Procedure, shortened: as §1

[11] = target: Man(a1-2)Man(a1-3)[Man(a1-6)]Man(a1-6)[Man(a1-2)Man(a1-3)]Man(b1-4)GlcNAc(b1-4)GlcNAc
Procedure, shortened: as §1

[12] = target: Man(a1-2)Man(a1-6)[Man(a1-3)]Man(a1-6)[Man(a1-2)Man(a1-2)Man(a1-3)]Man
Procedure, shortened: as §1

[13] = target: Man(a1-2)Man(a1-6)[Man(a1-3)]Man(a1-6)[Man(a1-2)Man(a1-2)Man(a1-3)]Man(b1-4)GlcNAc(b1-4)GlcNAc
Procedure, shortened: as §1

[14] = target: Man(a1-3)[Man(a1-6)]Man
Procedure, shortened: as §1

[15] = target: Man(a1-3)[Man(a1-6)]Man(a1-6)[Man(a1-2)Man(a1-3)]Man(b1-4)GlcNAc(b1-4)GlcNAc
Procedure, shortened: as §1

[16] = target: Man(a1-3)[Man(a1-6)]Man(a1-6)[Man(a1-3)]Man
Procedure, shortened: as §1

[17] = target: Man(a1-3)[Man(a1-6)]Man(a1-6)[Man(a1-3)]Man(b1-4)GlcNAc(b1-4)GlcNAc
Procedure, shortened: as §1

[18] = target: Man(a1-3)[Man(a1-6)]Man(b1-4)GlcNAc(b1-4)GlcNAc
Procedure, shortened: as §1

[19] = target: Man(a1-6)Man
Procedure, shortened: as §1

[20] = target: Man(b1-4)GlcNAc
Procedure, shortened: as §1

[21] = target: Neu5Ac(a2-3)Gal
Procedure, shortened: as §1

[22] = target: Neu5Ac(a2-3)Gal(b1-3)GalNAc
Procedure, shortened: as §1

[23] = target: Neu5Ac(a2-3)Gal(b1-3)GalNAc(b1-3)Gal(a1-4)Gal(b1-4)Glc
Procedure, shortened: as §1

[24] = target: Neu5Ac(a2-3)Gal(b1-3)GalNAc(b1-3)Gal(b1-4)GlcNAc
Procedure, shortened: as §1

[25] = target: Neu5Ac(a2-3)Gal(b1-3)GalNAc(b1-4)[Neu5Ac(a2-3)]Gal(b1-4)Glc
Procedure, shortened: as §1

[26] = target: Neu5Ac(a2-3)Gal(b1-3)GalNAc6S
Procedure, shortened: as §1

[27] = target: Neu5Ac(a2-3)Gal(b1-3)GlcNAc
Procedure, shortened: as §1

[28] = target: Neu5Ac(a2-3)Gal(b1-3)GlcNAc(b1-3)Gal(b1-3)GlcNAc
Procedure, shortened: as §1

[29] = target: Neu5Ac(a2-3)Gal(b1-3)GlcNAc6S
Procedure, shortened: as §1

[30] = target: Neu5Ac(a2-3)Gal(b1-3)[Fuc(a1-4)]GlcNAc
Procedure, shortened: as §1

[31] = target: Neu5Ac(a2-3)Gal(b1-3)[Fuc(a1-4)]GlcNAc(b1-3)Gal(b1-4)[Fuc(a1-3)]GlcNAc
Procedure, shortened: as §1

[32] = target: Neu5Ac(a2-3)Gal(b1-3)[Neu5Ac(a2-3)Gal(b1-4)]GlcNAc
Procedure, shortened: as §1

[33] = target: Neu5Ac(a2-3)Gal(b1-3)[Neu5Ac(a2-6)]GalNAc
Procedure, shortened: as §1

[34] = target: Neu5Ac(a2-3)Gal(b1-4)Glc
Procedure, shortened: as §1

[35] = target: Neu5Ac(a2-3)Gal(b1-4)GlcNAc
Procedure, shortened: as §1

[36] = target: Neu5Ac(a2-3)Gal(b1-4)GlcNAc(b1-2)Man(a1-3)[GlcNAc(b1-2)Man(b1-4)GlcNAc(b1-2)Man(a1-6)]Man(b1-4)GlcNAc(b1-4)GlcNAc
Procedure, shortened: as §1

[37] = target: Neu5Ac(a2-3)Gal(b1-4)GlcNAc(b1-2)Man(a1-3)[Neu5Ac(a2-6)Gal(b1-4)GlcNAc(b1-2)Man(a1-6)]Man(b1-4)GlcNAc(b1-4)GlcNAc
Procedure, shortened: as §1

[38] = target: Neu5Ac(a2-3)Gal(b1-4)GlcNAc(b1-3)Gal(b1-3)GlcNAc
Procedure, shortened: as §1

[39] = target: Neu5Ac(a2-3)Gal(b1-4)GlcNAc(b1-3)Gal(b1-4)GlcNAc
Procedure, shortened: as §1

[40] = target: Neu5Ac(a2-3)Gal(b1-4)GlcNAc(b1-3)Gal(b1-4)GlcNAc(b1-3)Gal(b1-4)GlcNAc
Procedure, shortened: as §1

[41] = target: Neu5Ac(a2-3)Gal(b1-4)GlcNAc(b1-3)Gal(b1-4)[Fuc(a1-3)]GlcNAc
Procedure, shortened: as §1

[42] = target: Neu5Ac(a2-3)Gal(b1-4)GlcNAc(b1-6)[Gal(b1-3)]GalNAc
Procedure, shortened: as §1

[43] = target: Neu5Ac(a2-3)Gal(b1-4)GlcNAc(b1-6)[Neu5Ac(a2-3)Gal(b1-3)]GalNAc
Procedure, shortened: as §1

[44] = target: Neu5Ac(a2-3)Gal(b1-4)GlcNAc6S
Procedure, shortened: as §1

B1: Ficolin A (Rattus norvegicus), Q9WTS8 (protein)
chain: MWWPMLWAFPVLLCLCSSQALGQESGACPDVKIVGLGAQDKVAVIQSCPSFPGPPGPKGEPGSPAGRGERGLQGSPGKMGPPGSKGEPGTMGPPGVKGEKGERGTASPLGQKELGDALCRRGPRSCKDLLTRGIFLTGWYTIYLPDCRPLTVLCDMDVDGGGWTVFQRRVDGSINFYRDWDSYKRGFGNLGTEFWLGNDYLHLLTANGNQELRVDLREFQGQTSFAKYSSFQVSGEQEKYKLTLGQFLEGTAGDSLTKHNNMAFSTHDQDNDTNGGKNCAALFHGAWWYHDCHQSNLNGRYLPGSHESYADGINWLSGRGHRYSYKVAEMKIRAS
glycan array binding signal (z-score) [1]: -0.12
glycan array binding signal (z-score) [2]: -0.099
glycan array binding signal (z-score) [3]: -0.114
glycan array binding signal (z-score) [4]: -0.096
glycan array binding signal (z-score) [5]: -0.068
glycan array binding signal (z-score) [6]: -0.079
glycan array binding signal (z-score) [7]: -0.107
glycan array binding signal (z-score) [8]: -0.093
glycan array binding signal (z-score) [9]: -0.092
glycan array binding signal (z-score) [10]: -0.07
glycan array binding signal (z-score) [11]: -0.063
glycan array binding signal (z-score) [12]: 0.013
glycan array binding signal (z-score) [13]: -0.096
glycan array binding signal (z-score) [14]: -0.085
glycan array binding signal (z-score) [15]: -0.036
glycan array binding signal (z-score) [16]: -0.064
glycan array binding signal (z-score) [17]: -0.03
glycan array binding signal (z-score) [18]: -0.067
glycan array binding signal (z-score) [19]: -0.108
glycan array binding signal (z-score) [20]: -0.099
glycan array binding signal (z-score) [21]: -0.112
glycan array binding signal (z-score) [22]: -0.106
glycan array binding signal (z-score) [23]: -0.114
glycan array binding signal (z-score) [24]: -0.082
glycan array binding signal (z-score) [25]: -0.115
glycan array binding signal (z-score) [26]: -0.102
glycan array binding signal (z-score) [27]: -0.011
glycan array binding signal (z-score) [28]: -0.095
glycan array binding signal (z-score) [29]: -0.028
glycan array binding signal (z-score) [30]: -0.084
glycan array binding signal (z-score) [31]: -0.064
glycan array binding signal (z-score) [32]: -0.085
glycan array binding signal (z-score) [33]: 0.325
glycan array binding signal (z-score) [34]: 0.022
glycan array binding signal (z-score) [35]: -0.096
glycan array binding signal (z-score) [36]: -0.058
glycan array binding signal (z-score) [37]: -0.027
glycan array binding signal (z-score) [38]: -0.098
glycan array binding signal (z-score) [39]: -0.097
glycan array binding signal (z-score) [40]: -0.015
glycan array binding signal (z-score) [41]: -0.084
glycan array binding signal (z-score) [42]: -0.098
glycan array binding signal (z-score) [43]: -0.104
glycan array binding signal (z-score) [44]: 0.064
